Laboratory results taken from PubChem BioAssay AID1508624 (National Center for Advancing Translational Sciences (NCATS), 2021).
In all, about 48,000 compounds went through this assay and about 120 (0.25%) were called active. About 4% were inconclusive and are not listed. Calls follow the shape of the dose curve; as a rule, active = well fitted activation curve with a large enough effect; inconclusive = small, poorly fitted or top-dose-only effect, or another doubt; inactive = no such curve, though single readings can be large or run the other way. This is one part of the list.

test: Primary qHTS for Identification of Small Molecule Activators of Huntingtin-Antisense Promoter Activity; settings: HEK293 HTT-AS promoter firefly luciferase reporter, 24 h; series mostly up to 57.5 µM; activity change, positive = activation: at the top concentration; also: nearly all actives have a fitted effect of over 55% in size
Summary of the method: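 Luminescence was read after Dual-Glo reagent and a 10 min room-temperature incubation. Values were normalized to vehicle (0% activity) and zero RLU (-100% activity). Reporter HEK293 cells had been exposed to compounds (up to 57.5 uM final) for 24 h.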

| SMILES | activity change, positive = activation |
| --- | --- |
| Cc1ccccc1C(=O)N1CCCCC1CCN1CCCCC1 (centres undefined) | inactive: -2.26% |
| COc1ccc(N2CCN(C(=O)CCc3c(C)nc4cc(-c5cccc(F)c5)nn4c3C)CC2)cc1 | inactive: -63.1% |
| CC(=O)N1CCc2c(sc3c2c(=O)n(-c2ccccc2)c(=O)n3Cc2cccc(C(F)(F)F)c2)C1 | inactive: -37.4% |
| CCOC(=O)c1cnc2c(ccc3ccccc32)c1Nc1ccc(OC)cc1OC | inactive: -23.9% |
| COc1cccc(N=C2SC(C(=O)Nc3cccc(Cl)c3)CC(=O)N2C)c1 (centres undefined) | inactive: -27.3% |
| CSc1ncc(C(=O)N2CCN(c3ccc(Cl)cc3)CC2)c(C)n1 | inactive: -16.5% |
| CCc1nn(CC(=O)NCCCN2CCN(C)CC2)c(=O)c2cc3occc3n12 | inactive: -3.71% |
| COc1ccc(C(=O)c2c(N)c(-c3nc(-c4ccccc4)cs3)c3ccccn23)cc1 | inactive: 3.19% |
| COc1ccc(C)cc1NC(=O)c1oc2ccc(S(=O)(=O)N3CCOCC3)cc2c1C | inactive: 2.96% |
| COC(=O)c1c(NC(=O)COc2ccc(Cl)cc2C)sc2c1CCCCC2 | inactive: -17.8% |
| COc1ccc(OC)c(NC(=O)CSC2=Nc3ccccc3C3=NC(CCC(=O)NC4CCCCC4)C(=O)N23)c1 (centres undefined) | inactive: -14.5% |
| Cc1cccc(N2CCN(C(=O)CCCn3ncn4c(cc5occc54)c3=O)CC2)c1C | inactive: -30.2% |
| CCOc1cc(CNCCSc2nnnn2C)cc(Cl)c1OCc1ccc(Cl)cc1 | inactive: -54.1% |
| O=C(NCC(c1cccnc1)N1CCc2ccccc2C1)C(=O)Nc1cccc(Cl)c1 (centres undefined) | inactive: -18.7% |
| O=C(Cc1ccc(F)cc1)Nc1cccc(-c2nc3cccnc3s2)c1 | inactive: 2.6% |
| COc1ccc(-c2cc(C(=O)NCCc3ccccc3)c3c(-c4ccccc4)[nH]nc3n2)cc1 | inactive: -0.501% |
| Cc1ccc(CCNS(=O)(=O)c2ccc3c(c2)CCN3C(=O)CCC(=O)O)cc1 | inactive: 1.23% |
| CCc1ccc(NC(=O)CCc2c(C)n(C)c3cc(-c4ccccc4C)nn3c2=O)cc1 | inactive: -2.29% |
| COc1cc(C2CC(=O)N(CC(=O)Nc3ccccc3F)c3ccccc3S2)cc(OC)c1OC (centres undefined) | inactive: -36.1% |
| Cc1ccc(CCNC(=O)c2ccc(CSc3nc4ccncc4n3Cc3ccc(F)cc3)cc2)cc1 | inactive: -17.9% |
| Cc1ccc(-n2nc(CO)c(C(=O)NC(C)c3ccccc3)n2)cc1C (centres undefined) | inactive: -33.5% |
| COC(=O)c1sc2ccccc2c1S(=O)(=O)N1CCN(c2ccc(C(C)=O)cc2)CC1 | inactive: -21.4% |
| COC(=O)c1ccccc1NC(=O)CCc1c(C)nc2cc(-c3ccc(Cl)cc3)nn2c1C | inactive: -74.7% |
| CC(=O)c1cc(-c2ccc(F)cc2)n(CCC(=O)NC2CCCCC2)c1C | inactive: -21.2% |

| SMILES | activity change, positive = activation |
| --- | --- |
| CC(C)CNc1cc(NC2CCCCC2)c2c3c(onc13)-c1ccccc1C2=O | inactive: -22% |
| Cc1ccc(Cl)cc1N1CCN(C(=O)c2cn(C)c3ccc(S(=O)(=O)N4CCCCC4)cc3c2=O)CC1 | inactive: -4.16% [at 11.5 µM, percent change from vehicle, -100% = no light] |
| CSc1ccc(CCNC(=O)CCc2c(C)nc3c4cccnc4nn3c2C)cc1 | inactive: -15.8% |
| O=C(Nc1ccc(F)c(F)c1)c1ccc(F)c(S(=O)(=O)N2CCC3(CC2)OCCO3)c1 | inactive: -84.9% |
| COc1cccc(CNCc2c(C(=O)O)c(C)n(Cc3ccc(F)cc3Cl)c2C)c1OC | inactive: -9.68% |
| O=C(CC1N=C2c3ccccc3N=C(SCc3cccc(F)c3)N2C1=O)NC1CCCCC1 (centres undefined) | inactive: -10.5% |
| CCSc1nc2sc3c(c2c(=O)n1-c1ccc(C)cc1)CCCC3 | inactive: -29.1% |
| CCOC(=O)/C=C(C)/C=C/C=C(C)/C=C/c1c(C)cc(OC)c(C)c1C | inactive: -8.24% |
| O=C(Cn1c(=O)n(Cc2ccco2)c(=O)c2sc3ccccc3c21)Nc1ccccc1C(F)(F)F | inactive: -11.2% |
| Cc1nc2nc(C)c(CCC(=O)NCc3cccc(Cl)c3)c(C)n2n1 | inactive: -18% |
| Cc1ccc(-n2nc(C)c3c(C)c(CCC(=O)NCc4ccccc4Cl)c(C)nc32)cc1 | inactive: -16.5% |
| COc1ccc(C2=C(C(C)=O)Sc3nnc(-c4ccccc4)n3N2C(C)=O)cc1 | inactive: -0.898% |
| COc1cc(NC(=O)c2cc3cc4cc(OC)ccc4nc3o2)cc(OC)c1 | inactive: -5.54% |
| CCCCNC(=O)NS(=O)(=O)c1ccc(N)cc1 | inactive: -9.39% |
| CCOc1cc(C2NC(=O)c3c(sc4c3CCN(C)C4)N2)ccc1OC(=O)c1ccc(F)cc1 (centres undefined) | inactive: 6.89% |
| CCOc1ccccc1N=Nc1c(C)[nH]n(-c2nc(-c3ccccc3)cs2)c1=O | inactive: -7.4% |
| COc1ccc(CC(=O)Nc2ccc(-c3nc4ccccc4s3)c(C)c2)cc1 | inactive: 20.2% |
| COc1ccc(NC(=O)c2ccc3oc(=O)c(S(=O)(=O)c4ccc(F)cc4)cc3c2)c(OC)c1 | inactive: -67.5% |
| CC(C)c1nc2sc3c(N4CCCCC4)ncnc3c2c2c1CCCC2 | inactive: -8.96% |
| CCOc1ccc(-n2c(SCC(=O)c3ccccc3)nc3c([nH]c4ccccc43)c2=O)cc1 | inactive: -7.1% |
| CC1(C)Cc2c(-c3ccccc3)c(-c3ccc(Cl)cc3)c(CC(=O)O)n2C1 | inactive: -31.4% |
| COc1ccc(C(=O)Oc2ccc(C3NC(=O)c4c(sc5c4CCN(C)C5)N3)cc2OC)cc1 (centres undefined) | inactive: 6.49% |
| Cc1ccc(Cl)cc1N1CCN(C(=O)c2cc(S(=O)(=O)N3CCCCC3)cn2C)CC1 | inactive: -38.3% |
| CCn1c(=O)n(CC2CCC(C(=O)NC(C)C)CC2)c(=O)c2sccc21 (centres undefined) | inactive: -7.98% |

| SMILES | activity change, positive = activation |
| --- | --- |
| CC(C)(C)c1cc(NC(=O)Nc2ccc(-c3cn4c(n3)sc3cc(OCCN5CCOCC5)ccc34)cc2)no1 | inactive: 7.8% |
| COc1ccc(NC(=O)CSc2c(C(C)C)cnc3c2c(=O)n(C)c(=O)n3C)c(OC)c1 | inactive: -4.64% |
| COc1ccc2cc3c(N)nn(C(=O)c4ccc(F)cc4Cl)c3nc2c1 | inactive: -29.2% |
| CCOC(=O)c1cc(CC)sc1NC(=O)COc1ccccc1C | inactive: -7.34% |
| Cc1cc(NC(=O)CN2CCC(O)CC2)nc2c1c(=O)oc1ccccc12 | inactive: 10.1% |
| COc1ccc(C(=O)NCC(c2ccc3c(c2)OCO3)N2CCN(C)CC2)cc1OC (centres undefined) | inactive: -5.86% |
| CCOC(=O)c1c(C)[nH]c(C)c1S(=O)(=O)N1CCC(C(=O)Nc2ccc(OC)c(OC)c2)CC1 | inactive: -8.13% |
| COc1ccc(Cl)cc1NC(=O)Cn1nnc(C(=O)NCc2cccs2)c1N | inactive: -40% |
| COc1ccccc1NC(=O)COC(=O)CC(C)(C)CC1=NS(=O)(=O)c2ccccc2N1 | inactive: -34.5% |
| COc1ccc2c(CNCc3ccco3)c(C(=O)O)n(Cc3ccccc3)c2c1 | inactive: -24.1% |
| COc1cccc(N2CC(NC(=O)C3CCCC3)CC2=O)c1 (centres undefined) | inactive: -4.57% |
| COc1ccc(N2CCN(C(=O)c3c4c(nc5ccccc35)C(=O)N(C3CCCCC3)C4)CC2)cc1 | inactive: -10.8% |
| C=CCOc1ccccc1OCC(O)CNC(C)C (centres undefined) | inactive: -5.18% |
| O=C(Nc1ccc2nc(SCC(=O)N3CCCC3)sc2c1)c1cccc(F)c1 | inactive: -17.9% |
| CCc1ccc(-n2c(=O)c3ccc(C(=O)NCCc4ccccc4)cc3n(Cc3ccccc3C#N)c2=O)cc1 | inactive: -5.44% |
| COc1ccc(-c2nc3ccccc3o2)cc1NC(=O)c1ccc(OCC(C)C)cc1 | inactive: 24.7% |
| COc1ccc(-c2nnc(SCC(=O)c3ccc(NC(C)=O)cc3)o2)cc1OC | inactive: 1.83% |
| CSc1ccc(C2c3[nH]c4ccccc4c3CCN2C(=O)CCC2CCCC2)cc1 (centres undefined) | inactive: -36.3% |
| COC(=O)c1c(-c2cccs2)csc1NC(=O)c1ccc(C(C)(C)C)cc1 | inactive: -4.49% |
| Cc1cccc(Cc2c(C)nc3nc(SCc4cccc(F)c4)nn3c2C)c1 | inactive: -17.5% |
| O=S(=O)(c1ccccc1)c1nnn2c1nc(NC1CCCCCC1)c1sccc12 | inactive: -1.04% |
| CCOc1ccc(CCNC(=O)CN2C(=O)COc3ccc(S(=O)(=O)N(CC)CC)cc32)cc1 | inactive: -27.4% |
| COc1cc(S(=O)(=O)n2ccnc2C(C)C)ccc1Br | inactive: -22.6% |
| Cc1ccc(Cn2ccnc2SCC(=O)NC2CCCC2)cc1 | inactive: -0.947% |

| SMILES | activity change, positive = activation |
| --- | --- |
| COc1ccccc1CNC(=O)C(=O)NCC(c1cccnc1)N1CCN(c2ccc(F)cc2)CC1 (centres undefined) | inactive: -46.2% |
| Cc1ccc(-c2nc(S(=O)(=O)c3ccc(C)cc3)c(N3CCCCC3)o2)cc1 | inactive: 0% |
| O=C(CN(c1cccc(C(F)(F)F)c1)S(=O)(=O)c1ccccc1)Nc1cccc(Cl)c1 | inactive: -40.1% |
| CCCn1c2ccccc2c2cnn(CC(=O)NC(C)CC)c(=O)c21 (centres undefined) | inactive: -23.1% |
| COc1ccc(OC(=O)CSc2nnc(-c3ccc(F)cc3)o2)cc1 | inactive: -5.55% |
| CCCCOC(=O)/C(C#N)=C/c1ccc(-c2ccc(Br)cc2)o1 | inactive: 0.587% |
| Cc1ccc([N+](=O)[O-])c(Oc2ncnc3c2oc2ccccc23)c1 | inactive: -17.8% |
| Cc1ccc(NC(=O)CCCN2C(=O)COc3ccc(C)cc32)c(C)c1 | inactive: -8.14% |
| Cc1c(N)c(=O)n(-c2ccccc2)n1C | inactive: -8.01% |
| Cc1ccc(N2C(=O)CSC23C(=O)N(CC(=O)Nc2ccc(C)cc2C)c2ccccc23)cc1 (centres undefined) | inactive: -18.2% |
| COc1ccc2c(Sc3ccccc3)c(C(=O)N3CCC(C)CC3)[nH]c2c1 | inactive: 6.18% |
| CCOC(=O)c1c(-c2ccc(C)cc2C)csc1NC(=O)c1ccccc1Cl | inactive: -12.2% |
| NC(=O)C1CCN(C(=O)c2ccc3c(c2)N(Cc2cccc(Cl)c2)C(=O)c2ccccc2S3(=O)=O)CC1 | inactive: -13.6% |
| Cc1ccc2c(=O)cc(C(=O)Nc3c(C(=O)c4ccccc4)oc4ccccc34)oc2c1 | inactive: -0.42% [at 11.5 µM, percent change from vehicle, -100% = no light] |
| CCOc1ccc(NS(=O)(=O)c2ccc3[nH]cc(C(=O)N(C)C4CCCCC4)c(=O)c3c2)cc1 | inactive: 0.865% |
| O=C(NCCCN1CCCCC1)c1ccc2c(c1)sc1nc(-c3ccc(F)cc3)cn12 | inactive: 4.79% |
| COCCNC(=O)Cn1cc2c(n1)-c1c(oc(C(=O)N3CCCC3)c1C)CC2 | inactive: -8.48% |
| NC(=O)Cn1c(=O)n(CCCCCC(=O)NCc2ccccc2Cl)c(=O)c2sccc21 | inactive: -12.4% |
| O=C(O)c1ccc[n+]([O-])c1 | inactive: -4.84% |
| CC(CNC(=O)c1ccc(Nc2nc3ccccc3n3nnnc23)cc1)c1ccccc1 (centres undefined) | inactive: 8.19% |
| Cc1ccc(CSCCC(=O)N2CCN(c3cc(C)ccc3C)CC2)cc1 | inactive: -30.8% |
| CCCN(CCC)C(=O)C1CCCN(c2ncnc3onc(-c4ccc(F)cc4)c23)C1 (centres undefined) | inactive: -6.5% |
